In PubChem BioAssay AID1030 (National Center for Advancing Translational Sciences (NCATS), 2008):
Values joined by “and” are separate entries in the source; they are usually repeats but may differ in a detail not shown here. Equal entries are not always repeated. Hit rate of the full screen: of about 220,000 compounds, about 16,000 (7.3%) were called active. The inconclusive results got no clear call from the source; some entries with a clear call stand among them for comparison. Calls come from the whole dose curve; as a rule, active = well fitted inhibition curve with a large enough effect (not every such curve was filed as active); inconclusive = small, poorly fitted or top-dose-only effect, or another doubt; inactive = no such curve, though single readings can be large or run the other way. A potency beside an inconclusive call is a rough fit, not a confirmed value.

The molecules below were run against Aldehyde dehydrogenase 1A1 (Homo sapiens) (UniProt P00352) (assay: qHTS Assay for Inhibitors of Aldehyde Dehydrogenase 1 (ALDH1A1)). Settings: Purified ALDH1A1, NADH fluorescence, propionaldehyde substrate; series mostly up to 75.3 µM; activity, negative = inhibition: at the top concentration.
Potency is the fitted concentration of half-maximal effect; tags give direction and shape of the fitted curve.
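Throughout, for activity, negative = inhibition: plate controls were no enzyme wells and a reference inhibitor.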

UniProt P00352, sequence (P00352 whole entry, looked up): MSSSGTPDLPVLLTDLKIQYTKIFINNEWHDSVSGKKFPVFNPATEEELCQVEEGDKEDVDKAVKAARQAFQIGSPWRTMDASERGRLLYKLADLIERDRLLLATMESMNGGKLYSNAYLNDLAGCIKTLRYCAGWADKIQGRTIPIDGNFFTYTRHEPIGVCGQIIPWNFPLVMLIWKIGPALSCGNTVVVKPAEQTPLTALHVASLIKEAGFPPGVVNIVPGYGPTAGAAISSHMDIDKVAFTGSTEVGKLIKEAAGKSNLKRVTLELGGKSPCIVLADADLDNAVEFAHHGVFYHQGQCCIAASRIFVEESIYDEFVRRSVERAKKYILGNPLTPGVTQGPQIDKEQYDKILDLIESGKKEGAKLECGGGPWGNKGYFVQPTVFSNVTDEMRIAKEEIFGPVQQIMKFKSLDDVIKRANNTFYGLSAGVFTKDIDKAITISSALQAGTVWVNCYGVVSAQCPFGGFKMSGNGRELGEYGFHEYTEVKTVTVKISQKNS

SMILES	Potency	activity, negative = inhibition
COC(=O)[C@@H]1C[C@@]2(O)[C@H](O)[C@H](O)[C@H](O)C[C@H]2N1Cc1c(F)cccc1Cl	inconclusive: 39.8 µM [inhibitor, single point]	
COc1cccc(N2C(=O)CC(N3CCN(C(=O)c4ccco4)CC3)C2=O)c1 (configuration not stated)	inconclusive: 28.2 µM [inhibitor, partial curve]	
O=c1cc(CNc2ccc(Br)cc2)nc2sccn12		inactive: 13.6%
Cc1cc(C(=O)CSc2nnc(Nc3ccccc3F)s2)c(C)n1CC1CCCO1 (configuration not stated)	inconclusive: 39.8 µM [inhibitor, single point]	
Cc1c(Cl)c(=O)n2c(=O)c(Cl)c(C)n12	inconclusive: 35.5 µM [inhibitor, single point]	
CCn1c(SCc2ccccc2)nnc1C1CCCCC1	inconclusive: 39.8 µM [inhibitor, single point]	
CCOC(=O)c1c(C=O)c(C)n(Cc2ccccc2Cl)c1C	inconclusive: 17.8 µM [inhibitor, single point]	
CCOC(=O)c1c(/N=C/N(C)C)sc(/C=N/Nc2ccccc2)c1-c1ccccc1Cl	active: 12.6 µM	
Cc1cccc(OCC(=O)N2CCCc3ccccc32)c1	inconclusive: 28.2 µM [inhibitor, single point]	
COc1ccc(C)cc1NC(=O)C1CCN(C(=O)Cc2ccccc2)CC1		inactive: 2.73%
CC(=O)c1ccc(NC(=S)N2c3ccccc3CC2C)cc1 (configuration not stated)	active: 25.1 µM	
CC(=O)C1C(=O)c2c(cccc2[N+](=O)[O-])C1=Nc1ccccc1C (configuration not stated)	inconclusive: 3.55 µM [inhibitor, partial curve]	
Cc1c(Cl)cccc1NC(=S)NCc1cccs1	inconclusive: 25.1 µM [inhibitor, partial curve]	
Cc1ccc(NCc2nnc(SCC(=O)NCc3ccco3)n2CC2CCCO2)cc1Cl (configuration not stated)	inconclusive: 39.8 µM [inhibitor, single point]	
CCCc1nc2ccccc2c(=O)n1/N=C/c1ccccc1O	inconclusive: 39.8 µM [inhibitor, single point]	
CN=c1scc(-c2cc(OC)ccc2OC)n1/N=C/c1c(C)[nH]c2ccccc12	inconclusive: 10 µM [inhibitor, partial curve]	
Cn1c(-c2sccc2OCc2ccccc2)n[nH]c1=S	inconclusive: 15.8 µM [inhibitor, partial curve]	
N#Cc1nc(-c2ccco2)oc1N1CCc2ccccc2C1	inconclusive: 28.2 µM [inhibitor, partial curve]	
Cc1ccc(S(=O)(=O)NCC(=O)OCN2C(=O)c3ccccc3C2=O)cc1	active: 3.98 µM	
CC(=O)c1c(C)[nH]c(C(=O)CSc2nnc(-c3ccco3)n2Cc2ccccc2)c1C	inconclusive: 39.8 µM [inhibitor, single point]	
COc1ccc(Nc2nnc(SCC3CCCCO3)s2)cc1 (configuration not stated)		inactive: -17.1%
Cc1cc(C(N)=O)c2ccccc2n1		inactive: 4.32%
O=C(Nc1ccc2c(c1)CCC2)c1ccccc1		inactive: 1.43%
CCCC(c1nnnn1Cc1ccc(F)cc1)N1CCN(C)CC1 (configuration not stated)		inactive: -7.64%

SMILES	Potency	activity, negative = inhibition
CCCn1c(SCC(=O)Nc2ccc(OCC)cc2)nnc1C(C)C		inactive: -6.74%
CCOC(=O)CSc1nc2ccccc2c(=O)n1CC1COc2ccccc2O1 (configuration not stated)	inconclusive: 20 µM [inhibitor, single point]	
COC(=O)c1c(NC(=O)CCCC(=O)O)sc2c1CCCCC2	inconclusive: 25.1 µM [inhibitor, single point]	
O=C(/C=C/c1cccc([N+](=O)[O-])c1)N1CCOCC1	inconclusive: 39.8 µM [inhibitor, single point]	
CO/N=C/CC(=O)c1ccc(-c2ccccc2)cc1	inconclusive: 44.7 µM [inhibitor, single point]	
COCCn1c(-c2ccc(-c3ccc([N+](=O)[O-])cc3Br)o2)nc2c1c(=O)[nH]c(=O)n2CC(C)C	active: 15.8 µM	
Cn1cnnc1SCC(=O)n1c2ccccc2c2ccccc21	inconclusive: 39.8 µM [inhibitor, single point]	
O=C(NC(=S)NCC1CCCO1)c1ccccc1[N+](=O)[O-] (configuration not stated)	inconclusive: 25.1 µM [inhibitor, partial curve]	
Nc1cc(N)nc(SCc2cc([N+](=O)[O-])cc3c2OCOC3)n1	inconclusive: 17.8 µM [inhibitor, single point]	
O=C(OC1CCOC1=O)c1cccc(S(=O)(=O)N2CCc3ccccc3C2)c1 (configuration not stated)	active: 12.6 µM	
Cc1cccc(NC(=O)/C(=C\c2ccc([N+](=O)[O-])o2)NC(=O)c2ccc(Cl)cc2)c1	active: 4.47 µM	
Cc1cc(=O)n2[nH]c(COc3ccccc3)nc2n1		inactive: 8.23%
Cc1ccc(S(=O)(=O)CC(c2ccccc2)N2CCCCC2)cc1 (configuration not stated)	inconclusive: 39.8 µM [inhibitor, single point]	
Cc1ccc(C)c(NC2=CC(=O)CC(C)(C)C2)c1C#N	active: 12.6 µM	
CCCCCc1nc2c(C#N)c(-c3ccc(Cl)cc3)ccn2n1	inconclusive: 28.2 µM [inhibitor, partial curve]	
O=C(CSc1nc2ccccc2[nH]1)Nc1ccc2c(c1)CCC2	inconclusive: 20 µM [inhibitor, single point]	
Cn1cnnc1SCC(=O)Nc1ccc(S(=O)(=O)N2CCCC2)cc1		inactive: 3.07%
O=C(O)c1ccccc1Nc1cccc(OCc2ccc3ccccc3n2)c1	inactive and inconclusive: 25.1 µM [inhibitor, single point]	
CN(c1ccccc1)S(=O)(=O)c1ccc(Cl)c(C(=O)Nc2ccc(-c3nc4ccccc4[nH]3)cc2)c1	inconclusive: 39.8 µM [inhibitor, single point]	
CC(C)c1ccc(N(C(=O)c2csnn2)C(C(=O)NC(C)(C)C)c2ccncc2)cc1 (configuration not stated)	active: 2.24 µM	
Cn1c(C(=O)NC2CC2)cc2c(=O)n(C)c3ccccc3c21		inactive: -5.53%
COC1(OC)N=C(N)C2(C#N)C(c3ccccc3)NC(C)=CC12C#N (configuration not stated)	inconclusive: 31.6 µM [inhibitor, partial curve]	
C#CCOCCOCCOCCNc1nc(N2CCN(C(=O)[C@H](CCC(=O)O)n3cc(C(N)Cc4ccc(O)cc4)nn3)CC2)nc(N2CCN(C(=O)[C@H](CCC(=O)O)n3cc(C(N)CC(C)C)nn3)CC2)n1 (some centres not stated)	inconclusive: 39.8 µM [inhibitor, single point]	
COC(=O)C1=C(C)OC(N)=C(C#N)C1c1ccc(OC)c(OC)c1OC (configuration not stated)		inactive: 0.0713%

SMILES	Potency	activity, negative = inhibition
Cc1ccc(C(=O)OC(C(=O)Nc2ccc(Cl)cc2C(F)(F)F)c2ccccc2)cc1 (configuration not stated)		inactive: -5.23%
COc1ccc(OC)c(S(=O)(=O)NC(N)=NCCc2ccccc2)c1	inconclusive: 31.6 µM [inhibitor, single point]	
O=C1N/C(=C/c2cccs2)C(=O)N1Cc1ccccc1F	inconclusive: 3.16 µM [inhibitor, partial curve]	
CN(C)C(=S)NC(=O)C(c1ccccc1)c1ccccc1	inconclusive: 39.8 µM [inhibitor, single point]	
Cc1ccc(/C(O)=C2/C(=O)C(=O)N(CCCn3ccnc3)C2c2ccccn2)cc1 (configuration not stated)		inactive: 5.57%
CCCCN1C=C(C(=O)OC)C(c2ccccc2Cl)C(C(=O)OC)=C1	inconclusive: 35.5 µM [inhibitor, partial curve]	
C=CCc1cc(Cl)ccc1OCCNCCN1CCOCC1	inconclusive: 25.1 µM [inhibitor, single point]	
CCOc1cc(CNc2ccc3c(c2)CCC3)ccc1OC	active: 20 µM	
COc1ccc(N2Cc3ccccc3C2)cc1Cl	inconclusive: 39.8 µM [inhibitor, single point]	
CC(C)c1ccc(C(=O)NCc2ccc(Cl)cc2)cc1		inactive: 1.42%
CCCCOC(=O)CCc1c(C)[nH]c(=S)[nH]c1=O	inconclusive: 22.4 µM [inhibitor, single point]	
Cc1ccc(-c2c[nH]c(=S)n2-c2ccccc2F)cc1	active: 2 µM	
COc1cccc(CNC(=O)CCC2CCCN(C(=O)c3cc(C4CC4)[nH]n3)C2)c1 (configuration not stated)	inconclusive: 20 µM [inhibitor, partial curve]	
CC(NC(=O)NC1CCCCC1)C(c1cccs1)N1CCN(C)CC1 (configuration not stated)		inactive: 5.7%
CCOC(=O)CN(C(=O)CSc1nnc(CNc2ccc(C)cc2C)o1)c1ccccc1	inconclusive: 22.4 µM [inhibitor, partial curve]	
Cc1ccc(C(=O)NC2CC(C)(C)NC(C)(C)C2)cc1C		inactive: 12%
CCN1CCN(c2cc(C)c3cc(NC(=O)Cc4ccc(OC)c(OC)c4)ccc3n2)CC1	inconclusive: 25.1 µM [inhibitor, partial curve]	
CC1=C(C(=O)OCCOc2ccccc2)C(c2ccc(C)o2)C2=C(CC(C)(C)CC2=O)N1 (configuration not stated)	inconclusive: 39.8 µM [inhibitor, single point]	
COc1cccc(NC(=O)CCSc2nnc3scc(-c4ccccc4)n23)c1		inactive: -4.82%
CCCOc1ccc2c(CC)cc(=O)oc2c1C	inconclusive: 35.5 µM [inhibitor, single point]	
O=C(CC1Nc2ccccc2NC1=O)NCCCN1CCCCCC1 (configuration not stated)	inconclusive: 39.8 µM [inhibitor, single point]	
COc1ccccc1-c1ccc(Nc2ccc(C(=O)N3CCOCC3)cc2)nn1	inconclusive: 31.6 µM [inhibitor, single point]	
O=C(C1CCC(Cn2c(=S)[nH]c3ccccc3c2=O)CC1)N1CCN(c2ccccn2)CC1 (configuration not stated)	inconclusive: 8.91 µM [inhibitor, full curve]	
Cc1ccsc1C=C1C(=O)c2ccccc2C1=O	inconclusive: 0.501 µM [inhibitor, full curve]	
